From PubChem BioAssay AID1508642 (National Center for Advancing Translational Sciences (NCATS), 2021)
Screen size: about 43,000 compounds; about 200 (0.47%) were called active. This list was built around the results that the source calls inconclusive (neither active nor inactive); the mix of calls is not that of the screen. Calls follow the shape of the dose curve; as a rule, active = well fitted cell-killing curve with a large enough effect; inconclusive = small, poorly fitted or top-dose-only effect, or effect the other way; inactive = flat fitted curve, though single readings scatter. A potency beside an inconclusive call is a rough fit, not a confirmed value.

Assay: Cell viability qHTS assay in S16 Pmp22-F2sN cells; also: nearly all actives have a fitted effect of over 65% in size
Conditions: S16 Pmp22-F2sN Schwann cells (luciferase reporters placed in the Pmp22 gene) viability, CellTiter-Glo, 24 h; activity change, negative = cytotoxicity: at 57.5 µM (top of the series)
In short: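 Luminescence from CellTiter-Glo, read by CCD camera after a 15 min room-temperature incubation, served as the viability signal. Reporter Schwann cells (S16 Pmp22-F2sN) had been treated with pin-transferred compounds for 24 h at 37C.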
% is scaled to controls: 0 for no effect and ±100 for the full control effect; potency is read from the fitted curve at half-maximal effect; tags tell the direction and shape of the fitted curve.

| Structure (SMILES) | Potency | activity change, negative = cytotoxicity |
| --- | --- | --- |
| Cc1ccc(/C=C/c2nc3ccccc3[nH]2)cc1 | active: 15.8 µM |  |
| Cc1ccccc1OCC(O)Cn1c(=N)n(CCN2CCCCC2)c2ccccc21 (centres undefined) | inconclusive: 39.8 µM [cytotoxic, single point] |  |
| Cc1ccc(-c2nnc(Nc3cccc(O)c3)c3ccccc23)cc1S(=O)(=O)N1CCN(C)CC1 | inconclusive: 35.5 µM [cytotoxic, single point] |  |
| CCc1cccc(CC)c1NC(=O)CN1C(=O)C(=O)c2ccccc21 | inconclusive: 5.01 µM [cytotoxic, partial curve] |  |
| Cc1ccc(Nc2nnc(-c3ccc(C)c(S(=O)(=O)NCc4nc5ccccc5[nH]4)c3)c3ccccc23)cc1 | inconclusive: 39.8 µM [cytotoxic, single point] |  |
| COc1ccccc1NC(=O)NCCN1CCN(c2cccc(Cl)c2)CC1 | inconclusive: 15.8 µM [rising, partial curve] |  |
| COC(=O)C(C)Sc1ncnc2c1c(-c1ccccc1)cn2-c1ccc(F)cc1 (centres undefined) | inconclusive: 39.8 µM [rising, single point] |  |
| Cc1cccc(C)c1-n1ncc(C(=O)N2CCN(c3ccccc3)CC2)c1C1CCN(C(=O)OC(C)(C)C)CC1 | inconclusive: 31.6 µM [cytotoxic, partial curve, poor fit] |  |
| Cc1cccc(N2CCN(C(=O)c3cnn(-c4cccc(Cl)c4C)c3C3CCNCC3)CC2)c1C | inconclusive: 31.6 µM [cytotoxic, single point] |  |
| CCCc1nc2ccccc2n2c(-c3ccc(C)cc3)c3c(=O)n(C)c(=O)n(C)c3c12 | inconclusive: 25.1 µM [cytotoxic, single point] |  |
| CCN(CC)C(=O)c1sc2c(c1C)c(=O)n(Cc1ccccc1)c(=O)n2Cc1ccc(Cl)cc1 | inconclusive: 28.2 µM [cytotoxic, partial curve, poor fit] |  |
| CCN(C(=O)CCn1cnc2onc(-c3ccc(F)cc3)c2c1=O)c1ccc(OC)cc1 | inconclusive: 31.6 µM [cytotoxic, single point] |  |
| CCn1cc(C(=O)NCc2ccccc2OC)c(=O)c2cc(S(=O)(=O)N3CCCCC3)ccc21 | inconclusive: 39.8 µM [cytotoxic, partial curve, poor fit] |  |
| CCOC(=O)c1cccc(NC(=O)Cn2ncc3c4ccccc4n(Cc4ccccc4)c3c2=O)c1 |  | inactive: 16.6% |
| Cc1ccc(-c2ccc(CCC(=O)O)n2-c2cccc(O)c2)cc1 |  | inactive: 18.5% |
| Cc1cccc(Cn2c(=O)n(CCc3ccccc3)c(=O)c3c(C)c(C)sc32)c1 | inconclusive: 1.12 µM [cytotoxic, full curve, poor fit] |  |
| C#CCOc1ccc(-c2nnc(Nc3cccc(C)c3)c3ccccc23)cc1 | inconclusive: 35.5 µM [cytotoxic, single point] |  |
| CNC(=O)c1cc(Nc2nnc(-c3ccc(O)cc3)c3ccccc23)ccc1OC | inconclusive: 14.1 µM [rising, partial curve] |  |
| COc1ccc(-c2cc(C)nc3c(-c4ccc(OC)c(OC)c4)c(C)nn23)cc1 | inconclusive: 39.8 µM [cytotoxic, single point] |  |
| CCCCCn1c(=O)[nH]c2cc(C(=O)N3CCN(c4cccc(C)c4)C(C)C3)ccc2c1=O (centres undefined) | inconclusive: 39.8 µM [cytotoxic, single point] |  |

| Structure (SMILES) | Potency | activity change, negative = cytotoxicity |
| --- | --- | --- |
| CCOc1ccc(CNC(=O)CSc2nnc(C)c3c(C)n(-c4ccccc4)nc23)cc1 |  | inactive: 10.4% |
| Cc1ccccc1CCNC(=O)c1ccc2c(c1)c(C)c(C)n2Cc1ccccc1 | inconclusive: 22.4 µM [cytotoxic, single point] |  |
| CC(C)CN(CCCNC(=O)CN1C(=O)CSc2ccc(S(=O)(=O)N3CCOCC3)cc21)CC(C)C | inconclusive: 0.251 µM [rising, full curve, poor fit] |  |
| CCOc1ccc(NC(=O)CC2C(=O)OCCN2CC)cc1 (centres undefined) | inconclusive: 39.8 µM [cytotoxic, single point] |  |
| CC1=C(C(=O)N2CCN(c3cccc(C(F)(F)F)c3)CC2)C2(CCCCC2)OC1=O | inconclusive: 31.6 µM [cytotoxic, single point] |  |
| Cc1ccc(C)c(Nc2nc3c(S(=O)(=O)c4ccc(C(C)C)cc4)nnn3c3ccsc23)c1 | inconclusive: 39.8 µM [cytotoxic, partial curve, poor fit] |  |
| Cc1cccc(N2CCN(C(=O)c3c(C)oc4ncnc(N5CCCCC5)c34)CC2)c1C |  | inactive: -7.07% |
| Cc1ccc(S(=O)(=O)Nc2cccc(-c3cn4cccc(C)c4n3)c2)cc1 | inconclusive: 28.2 µM [cytotoxic, partial curve, poor fit] |  |
| COc1cccc(CNC(=O)c2cc3c(s2)-c2c(C)cccc2OC3)c1 | inconclusive: 31.6 µM [cytotoxic, single point] |  |
| Cc1ccc2nc(N3CCN(C(=O)C4CC4)CC3)sc2c1 |  | inactive: 2.15% |
| CC(C)(C)C(=O)NCCc1nc2ccccc2n1CCCCOc1ccc(Cl)cc1 | inconclusive: 39.8 µM [cytotoxic, single point] |  |
| COc1ccc(Cn2c(C(=O)O)c(CNCCc3cccs3)c3ccc(C)cc32)cc1 | inconclusive: 20 µM [cytotoxic, single point] |  |
| Cc1ccc(NC(=O)Cn2c(=O)n(CCC(=O)N3CCc4ccccc4C3)c(=O)c3ccccc32)cc1 | inconclusive: 25.1 µM [rising, partial curve] |  |
| COc1ccc(-n2nc3c(N4CCCC(C(=O)NCc5cccc(F)c5)C4)nnc(C)c3c2C)cc1 (centres undefined) | inconclusive: 25.1 µM [cytotoxic, single point] |  |
| Cc1cccc(OCC(=O)NCC2(N3CCN(C)CC3)CCCCC2)c1C | inconclusive: 31.6 µM [cytotoxic, partial curve, poor fit] |  |
| Cc1ccc(-n2ncc3c(N(C)Cc4ccccc4)ncnc32)cc1 |  | inactive: 4.32% |
| Cc1cccc(Cn2c(C)c(C)c3cc(C(=O)NCc4ccco4)ccc32)c1 | inconclusive: 25.1 µM [cytotoxic, partial curve, poor fit] |  |
| COc1ccc(S(=O)(=O)NCCc2csc3nc(-c4ccc(Cl)cc4)nn23)cc1C | inconclusive: 0.0251 µM [rising, full curve, poor fit] |  |
| Cc1nn(C(=O)c2ccccc2)c(C)c1Sc1ccc(Cl)cc1 | inconclusive: 39.8 µM [cytotoxic, single point] |  |
| Cc1ccc(C(c2sc3nc(-c4ccco4)nn3c2O)N2CCOCC2)cc1 (centres undefined) | inconclusive: 10 µM [rising, partial curve, poor fit] |  |

| Structure (SMILES) | Potency | activity change, negative = cytotoxicity |
| --- | --- | --- |
| Cc1cccc(-n2c(-c3ccco3)nc3c(cnn3-c3ccccc3C)c2=O)c1 | inconclusive: 39.8 µM [cytotoxic, single point] |  |
| CCC(=O)N1c2ccccc2CC1C(=O)NCCCN1CCN(c2cc(C)ccc2C)CC1 (centres undefined) | inconclusive: 10 µM [cytotoxic, partial curve, poor fit] |  |
| CCN(C(=O)c1ccc2c(c1)N(Cc1cccc(Cl)c1)C(=O)c1ccccc1S2=O)c1ccccc1 (centres undefined) | inconclusive: 35.5 µM [cytotoxic, single point] |  |
| CC(C)(C)C(=O)Nc1cc(-c2cccc(Br)c2)nn1-c1ccccc1 | inconclusive: 25.1 µM [cytotoxic, single point] |  |
| Cc1ccc(C(=O)Nc2ccc(F)cc2)cc1S(=O)(=O)N1CCCCCC1 | inconclusive: 28.2 µM [cytotoxic, single point] |  |
| CC(C)c1ccc2oc(-c3ccc(Cl)c(NC(=O)c4cccs4)c3)nc2c1 | inconclusive: 44.7 µM [cytotoxic, partial curve, poor fit] |  |
| COc1ccc(-c2nc3scc(CCNS(=O)(=O)c4ccccc4F)n3n2)cc1 | inconclusive: 25.1 µM [cytotoxic, partial curve, poor fit] |  |
| CC(Oc1ccc(F)cc1)C(=O)Nc1nc(-c2ccc(F)cc2)ns1 (centres undefined) | inconclusive: 39.8 µM [cytotoxic, single point] |  |
| COc1ccc(C)cc1S(=O)(=O)NCC(c1cccs1)S(=O)(=O)c1ccc(C)cc1 (centres undefined) | active: 25.1 µM |  |
| COc1ccc2nc(NC(=O)c3nc(S(=O)(=O)Cc4ccccc4)ncc3Cl)sc2c1 | active: 5.62 µM |  |
| CCCN(CCC)CCNC(=O)c1cc2c(-c3ccc(Cl)cc3)nn(C)c2s1 | inconclusive: 39.8 µM [cytotoxic, single point] |  |
| Cc1ccc(CN2CCCn3nc(C(=O)NCc4ccc(OC(C)C)cc4)cc3C2=O)cc1 | inconclusive: 31.6 µM [cytotoxic, partial curve, poor fit] |  |
| CCc1nn(CC(=O)Nc2cc(C)cc(C)c2)c(=O)c2cc3sccc3n12 | inconclusive: 31.6 µM [cytotoxic, single point] |  |
| COc1ccc(OC)c(Nc2ncnc3c2cnn3-c2cccc(Cl)c2)c1 | inconclusive: 28.2 µM [cytotoxic, single point] |  |
| Cc1ccn2c(Nc3ccc(F)cc3)c(-c3ccccn3)nc2c1 | inconclusive: 2 µM [cytotoxic, full curve, poor fit] |  |
| Cc1ccc(C)c(CSc2ccc3nnc(CCNS(=O)(=O)c4ccccc4)n3n2)c1 |  | inactive: 0.155% |
| O=C(c1ccco1)n1nc(-c2ccc(Cl)cc2)nc1NCc1ccccc1 | inconclusive: 20 µM [cytotoxic, partial curve, poor fit] |  |
| Cc1ccc(NC(=O)C2CCCN2S(=O)(=O)c2ccc3nc(-c4ccccc4)[nH]c3c2)cc1F (centres undefined) | inconclusive: 25.1 µM [cytotoxic, partial curve] |  |
| CCOc1cc(C2C(C(=O)Nc3ccc(OC)cc3)=C(C)Nc3nc(SC)nn32)ccc1O (centres undefined) |  | inactive: -26.7% |
